Measured values taken from PubChem BioAssay AID743255 (National Center for Advancing Translational Sciences (NCATS), 2014).
The whole screen tested about 390,000 compounds, of which about 910 (0.23%) were called active. Another 5% or so got no clear call; they are omitted. Calls follow the shape of the dose curve; as a rule, active = well fitted inhibition curve with a large enough effect; inconclusive = small, poorly fitted or top-dose-only effect; inactive = no such curve, though single readings can be large or run the other way. The list shows a part of the results, in another mix than the full data.

These compounds were tested against Ubiquitin carboxyl-terminal hydrolase 1 (Homo sapiens) (UniProt O94782) (assay: Inhibitors of USP1/UAF1: Primary Screen). Settings: recombinant USP1/UAF1, Ub-Rhodamine cleavage fluorescence; activity change, negative = inhibition: at 57.1 µM (top of the series).
UniProt O94782, sequence (O94782 whole entry, looked up): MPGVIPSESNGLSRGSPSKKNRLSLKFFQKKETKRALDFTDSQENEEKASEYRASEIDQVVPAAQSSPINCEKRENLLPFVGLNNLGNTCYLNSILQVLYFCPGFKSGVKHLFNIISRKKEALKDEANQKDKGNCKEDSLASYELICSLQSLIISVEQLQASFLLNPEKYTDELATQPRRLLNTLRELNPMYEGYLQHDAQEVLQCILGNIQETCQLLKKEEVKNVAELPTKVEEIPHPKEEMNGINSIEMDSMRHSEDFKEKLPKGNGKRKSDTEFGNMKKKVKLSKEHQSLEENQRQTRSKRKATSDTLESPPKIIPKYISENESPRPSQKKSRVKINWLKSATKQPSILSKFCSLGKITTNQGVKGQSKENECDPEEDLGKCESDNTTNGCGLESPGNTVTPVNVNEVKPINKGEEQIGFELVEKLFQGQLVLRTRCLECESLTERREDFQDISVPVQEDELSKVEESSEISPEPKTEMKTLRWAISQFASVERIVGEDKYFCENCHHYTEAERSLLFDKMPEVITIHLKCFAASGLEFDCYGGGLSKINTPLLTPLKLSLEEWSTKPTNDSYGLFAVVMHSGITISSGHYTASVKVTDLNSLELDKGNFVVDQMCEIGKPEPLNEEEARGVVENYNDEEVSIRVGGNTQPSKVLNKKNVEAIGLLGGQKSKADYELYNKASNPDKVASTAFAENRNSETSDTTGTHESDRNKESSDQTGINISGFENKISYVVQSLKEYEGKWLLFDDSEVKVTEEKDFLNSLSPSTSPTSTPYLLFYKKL
Procedure, shortened: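 In this screen, compounds sit with the deubiquitinase complex (1nM) for 15 min at room temperature before Ub-Rho is added at 150nM final. Fluorescence rise is then followed for 6 reads every 60 seconds.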
% is scaled to controls: 0 for no effect and ±100 for the full control effect; potency is read from the fitted curve at half-maximal effect.
Also: nearly all actives have a fitted effect of over 60% in size.

Row | Compound | activity change, negative = inhibition | Potency
1 | Cc1cccc(CN2C(=O)c3ccccc3Sc3ccc(C(=O)NCCCN4CCOCC4)cc32)c1 | inactive: -25.4% | –
2 | C=CC[C@@H](Cc1ccc(F)cc1)C(=O)OC[C@@H]1CCCN1C(=O)[C@H](CC=C)CC(=O)NCCO | inactive: -16.3% | –
3 | CCc1ccc(NC(=O)C2CCN(S(=O)(=O)c3c(C)noc3C)CC2)cc1 | inactive: -17.5% | –
4 | COC(=O)C[C@H]1C[C@H]2c3cc(NS(=O)(=O)c4ccc(OC)cc4)ccc3O[C@H]2[C@H](CO)O1 | inactive: -3.85% | –
5 | C[C@H](CO)NC(=O)c1nc[nH]c1C(=O)N[C@H](C)c1ccccc1 | inactive: -24.8% | –
6 | C=CC[C@@H](Cc1ccc(F)cc1)C(=O)OC[C@H]1CCCN1C(=O)[C@@H](CC=C)CC(=O)N(CCO)Cc1ccccc1 | inactive: -26.6% | –
7 | COc1cc(/C=C2\SC(=Nc3ccc(Cl)c(C(=O)O)c3)NC2=O)c(Br)c(Br)c1O | – | active: 17.8 µM
8 | C[C@@H]1CN([C@H](C)CO)C(=O)CCCn2nncc2CO[C@@H]1CN(C)S(=O)(=O)c1ccccc1C#N | inactive: 0.649% | –
9 | O=C(NC1CCCCC1)c1cccc2c1C(=O)c1ccc(N3CCC(Cc4ccccc4)CC3)cc1S2(=O)=O | inactive: 224% | –
10 | O=C(O)c1cc(-c2ccco2)nc2ccc(Br)cc12 | inactive: -18.5% | –
11 | CCOC(=O)c1c(Nc2ccc(Cl)cc2)sc(/C=C2\C=Nc3ccccc32)c1O | inactive: 74.5% | –
12 | COC(=O)N[C@@H]1C[C@H]2[C@@H]3CC[C@H]4C[C@@H](OC)CC[C@]4(C)[C@H]3CC[C@@]12C | inactive: -17.2% | –
13 | COc1cccc(NC(=O)C2CCCN2S(=O)(=O)c2ccc3c(c2)C(C)(C)C(=O)N3C)c1 (configuration not stated) | inactive: -20.9% | –
14 | O=c1oc2ccccc2cc1-c1nc(-c2cccs2)cs1 | inactive: 265% | –
15 | O=C(NCc1ccccc1)C1=C[C@@H](c2csc3ccccc23)C[C@@H](OCCCCO)O1 | inactive: -27% | –
16 | O=C(c1ccc(OCCN2CCCCC2)cc1)c1c(-c2ccc(O)cc2)sc2cc(O)ccc12 | inactive: 3.67% | –
17 | C[C@@H]1CN([C@@H](C)CO)C(=O)CCCn2nncc2CO[C@H]1CN(C)C(=O)Nc1ccc2c(c1)OCO2 | inactive: 5.63% | –
18 | Nc1cccc2c(O)cc(S(=O)(=O)O)cc12 | – | active: 25.1 µM
19 | O=C(NC1CC1)C1=C[C@@H](c2c[nH]c3ccccc23)C[C@@H](OCCCCO)O1 | inactive: -14.4% | –
20 | COc1ccc(NC(=O)c2oc3ccc(S(=O)(=O)N4CCOCC4)cc3c2C)cc1 | inactive: -7.31% | –
21 | C[C@H]1CN([C@@H](C)CO)C(=O)CCCn2nncc2CO[C@H]1CN(C)S(=O)(=O)c1ccccc1F | inactive: -13.6% | –
22 | CCCCCCN1C[C@H](n2cc(-c3ccc(F)cc3)nn2)[C@@H](O)C[C@@H]1c1ccc(OC)cc1 | inactive: 3.4% | –

Row | Compound | activity change, negative = inhibition | Potency
23 | O=C(Nc1nc2c(s1)CN(Cc1ccccc1)CC2)c1cccc(S(=O)(=O)N2CCc3ccccc32)c1 | – | active: 28.2 µM
24 | Oc1ccc(C[C@@H]2CNCCN2CCCCC2CCCCC2)cc1 | inactive: -5.72% | –
25 | COCCCNC(=O)C(C#N)c1nc2ccccc2nc1N1CCCC1 (configuration not stated) | inactive: 28.9% | –
26 | COc1cc2c3nnc(-c4ccc(F)cc4)c-3cn(Cc3ccccc3)c2cc1OC | – | active: 31.6 µM
27 | Cn1c(Nc2ccc(Cl)cc2)cc(=O)n(C)c1=O | inactive: -8.39% | –
28 | C=CCN1C=CC(=C/C=C(/C#N)C(=O)OCC)C=C1 | – | active: 28.2 µM
29 | C[C@H](CO)N1C[C@H](C)[C@@H](CN(C)Cc2cncnc2)Oc2cc(Br)ccc2S1(=O)=O | inactive: 3.86% | –
30 | CCOc1ccc(NC(=O)CC2C(=O)N(c3ccccc3)C(=O)N2CCc2cccs2)cc1 (configuration not stated) | inactive: 1.69% | –
31 | O=C(NCc1ccccn1)[C@H]1C[C@@H]1[C@H](NP(=O)(c1ccccc1)c1ccccc1)c1ccccc1 | inactive: 3.43% | –
32 | C[C@@H]1CN([C@H](C)CO)C(=O)CCCn2cc(nn2)CO[C@H]1CN(C)S(=O)(=O)c1ccc(Oc2ccccc2)nc1 | inactive: -6.99% | –
33 | CC1CCCCC1NC(=O)COC(=O)c1c2c(nc3ccccc13)/C(=C/c1ccco1)CC2 (configuration not stated) | inactive: -22.3% | –
34 | CCOc1ccc(N=C2NC(=O)S/C2=C\c2ccc(N(C)C)cc2)cc1 | – | active: 28.2 µM
35 | CCN(CC)c1nc2ccccc2nc1C(C#N)C(=O)NCCc1ccccc1 (configuration not stated) | inactive: 150% | –
36 | C[C@H](CO)N1C[C@H](C)[C@@H](CN(C)C(=O)CCC(F)(F)F)OCc2cnnn2CCCC1=O | inactive: -21.5% | –
37 | N=C1/C(=C\c2ccc(-c3cccc(C(=O)O)c3)o2)C(=O)N=C2SC=C(c3ccccc3)N12 | inactive: -12.6% | –
38 | O=C(NCCS(=O)(=O)N1CCN(c2ccccc2)CC1)C1CC(=O)N(c2ccccc2)C1 (configuration not stated) | inactive: -1.15% | –
39 | CCOc1cc(N(CC)CC)ccc1/C=C(/C#N)c1nc2ccccc2[nH]1 | inactive: 30.2% | –
40 | Cc1c(NC(=O)c2cc(-c3cccc(Cl)c3)on2)c(=O)n(-c2ccccc2)n1C | inactive: -10.2% | –
41 | S=C(Nc1ccc(N2CCOCC2)cc1)Nc1ccc2nc(-c3ccco3)c(-c3ccco3)nc2c1 | – | active: 25.1 µM
42 | O=C1CC(=O)Nc2cc(S(=O)(=O)N3CCOc4ccccc43)ccc2N1 | inactive: -2.63% | –
43 | CCCOc1cc2c(C#N)c(N3CCCC3)nc(N)c2c(N)n1 | – | active: 28.2 µM
44 | CCO[C@H]1OC(C(=O)NC2CC2)=C[C@@H](c2csc3ccccc23)[C@@H]1CCCO | inactive: -25.1% | –

Row | Compound | activity change, negative = inhibition | Potency
45 | COc1cccc(CNC(=O)C(C)n2ccc3cc(S(=O)(=O)N4CCCCCC4)ccc32)c1 (configuration not stated) | inactive: -13.3% | –
46 | CC(C)NC(=O)Nc1ccc2c(c1)C(=O)N([C@H](C)CO)C[C@H](C)[C@@H](CN(C)Cc1ccc(C(F)(F)F)cc1)OCCCC[C@@H](C)O2 | inactive: -9.87% | –
47 | COc1ccc(CNC(=O)c2nnn(CC(=O)Nc3cc(C)cc(C)c3)c2N)cc1 | inactive: -17.7% | –
48 | COc1cc(NCCCC(C)N)c2ncccc2c1 (configuration not stated) | – | active: 5.01 µM
49 | O=C1C(Nc2ccccc2)=C(N2CCCCC2)C(=O)c2ccccc21 | – | active: 25.1 µM
50 | Cc1nn(Cc2ccc(Cl)cc2)c(C)c1NC(=O)c1noc2c1CCc1ccccc1-2 | inactive: -17.1% | –
51 | CC(C)Oc1ccc(CNC(=O)Cn2c(=O)oc3ccccc32)cc1 | inactive: -25.8% | –
52 | CCN=C1SC(CC(=O)Nc2ccccc2)C(=O)N1CC (configuration not stated) | inactive: -20.7% | –
53 | Cc1cc(-c2ccccc2)c2c3c(c(-c4ccccc4)n2n1)c(=O)n(C)c(=O)n3C | inactive: 36.9% | –
54 | C[C@@H]1CN([C@@H](C)CO)C(=O)CCCn2nncc2CO[C@H]1CN(C)C(=O)C1CCCCC1 | inactive: -16.1% | –
55 | COc1cccc(-c2cc(C(=O)Nc3ccn(Cc4ccc(C)cc4)n3)no2)c1 | inactive: -10.4% | –
56 | C[C@H]1CCC[C@@]2(O[C@@H](CCO)C[C@@H](O)[C@@H]2O)O1 | inactive: -23.4% | –
57 | CCN(CC)c1ccc2cc(-c3nc4ccccc4[nH]3)c(=O)oc2c1 | inactive: -19.7% | –
58 | C=CCOC(=O)C1=C[C@@H](c2ccc(C(F)(F)F)cc2)C[C@@H](OCCCCO)O1 | inactive: -28.2% | –
59 | C[C@H](CO)N1C[C@H](C)[C@@H](CN(C)C(=O)c2cc(-c3ccccc3)on2)OCc2cn(nn2)CCCC1=O | inactive: -10.7% | –
60 | COC(=O)N(C)C[C@@H]1OCc2cnnn2CCCC(=O)N([C@@H](C)CO)C[C@@H]1C | inactive: 0.0876% | –
61 | O=c1oc2cc(O)ccc2cc1-c1nnc(Nc2ccccc2F)s1 | inactive: 143% | –
62 | C[C@H]1CCC[C@@]2(O[C@H](CCO)C[C@@H](O)[C@@H]2O)O1 | inactive: -9.48% | –
63 | O=C1/C(=C\c2ccccn2)SC(=S)N1Nc1ncc(C(F)(F)F)cc1Cl | inactive: -11.7% | –
64 | OCC[C@H]1C[C@H](O)[C@@H](O)[C@]2(CCCO2)O1 | inactive: 12.2% | –
65 | COC(=O)C[C@@H]1C[C@H]2c3cc(NC(=O)CC4CC4)ccc3O[C@H]2[C@@H](CO)O1 | inactive: -19.1% | –
66 | C[C@@H]1CN([C@H](C)CO)C(=O)CCCn2nncc2CO[C@H]1CN(C)C(=O)c1ccc2ccn(C)c2c1 | inactive: 1.06% | –

Row | Compound | activity change, negative = inhibition | Potency
67 | c1ccc(-n2ncc3c2ncn2nnnc32)cc1 | inactive: 58.3% | –
68 | Nc1cc(-c2ccncc2)c[nH]c1=O | – | active: 39.8 µM
69 | CC(C)(C)OC(=O)C[C@@H]1C/C=C\C[C@@H](CC(=O)N[C@H](CO)Cc2ccccc2)C(=O)NCCOC1=O | inactive: -21.1% | –
70 | COc1cc(NC(=O)CSc2ncccc2C(=O)OC(C)C)cc(OC)c1 | inactive: 0.903% | –
71 | COC1=C(N)C(=O)c2nc(C)ccc2C1=O | – | active: 7.08 µM
72 | C=CCc1ccccc1OCC(O)CN1CCN(c2ccccc2OC)CC1 (configuration not stated) | inactive: -13.9% | –
73 | O=C(Cn1cnc2ccccc2c1=O)NCCC(=O)Nc1ccc(F)cc1 | inactive: -19.7% | –
74 | CCN(CC)c1ccc(/C=C/C(=O)C2C(=O)C=C(C)OC2=O)cc1 (configuration not stated) | – | active: 4.47 µM
75 | COc1cccc(NC(=O)N(C)C[C@@H]2OCc3cnnn3CCCC(=O)N([C@H](C)CO)C[C@@H]2C)c1 | inactive: -16.9% | –
76 | CCOC(=O)c1ccc(-n2c(CCC(=O)O)ccc2-c2ccccc2)cc1 | inactive: -8.7% | –
77 | C[C@H](CO)N1C[C@H](C)[C@@H](CN(C)C(=O)c2ccc3ccn(C)c3c2)OCc2cnnn2CCCC1=O | inactive: -14.4% | –
78 | Cn1nc(C(=O)N2CCN(c3ccccc3F)CC2)c2c1-c1ccccc1S(=O)(=O)C2 | inactive: -9.89% | –
79 | CC(C)CSC1=NSC2=NC(=O)/C(=C\c3coc4ccccc4c3=O)C(=N)N12 | – | active: 4.47 µM
80 | COc1cccc(S(=O)(=O)N(C)C[C@H]2Oc3cc(Br)ccc3S(=O)(=O)N([C@@H](C)CO)C[C@H]2C)c1 | – | active: 17.8 µM
81 | Cc1cccc(N(C(=O)c2sc(C)nc2C)C(C(=O)NCc2ccco2)c2ccccc2)c1 (configuration not stated) | inactive: 31.4% | –
82 | COC(=O)c1ccc(-n2nnc(-c3nc(-c4ccc5c(c4)OCO5)no3)c2C)cc1 | inactive: 38.1% | –
83 | Cc1ccc(-n2nnnc2C(=Cc2ccc(N(C)C)cc2)c2nnnn2-c2ccc(C)cc2)cc1 | – | active: 22.4 µM
84 | O=C1N[C@@H](c2ccccc2)COC(=O)[C@H](Cc2ccc(F)cc2)CC/C=C/C[C@H]1CC(=O)N(CCO)Cc1ccccc1 | inactive: -22.8% | –
85 | COC(C[C@H](O)C[C@H](O)COCc1ccccc1)OC | inactive: -17.8% | –
86 | Cc1[nH]n(-c2ccccc2)c(=O)c1C=Nc1ccc2[nH]c(=O)[nH]c2c1 | inactive: 96.3% | –
87 | C[C@H]1COC(=O)[C@H](CC(=O)OC(C)(C)C)C/C=C\C[C@@H](CC(=O)NCCO)C(=O)N1 | inactive: -3.49% | –
